The record followed here is PubChem BioAssay AID1508642 (National Center for Advancing Translational Sciences (NCATS), 2021).

Structures are written as SMILES. The campaign covered roughly 43,000 compounds. About 200 (0.47%) were called active. Not shown: some 12% with an inconclusive outcome. The call rests on the fitted dose curve; in most records, active means well fitted cell-killing curve with a large enough effect; inconclusive means small, poorly fitted or top-dose-only effect, or effect the other way; inactive means flat fitted curve, though single readings scatter. The list shows a part of the results.
On the % scale 0 is the no-effect control and ±100 the full control effect.

The assay in a line: Cell viability qHTS assay in S16 Pmp22-F2sN cells. Further: nearly all actives have a fitted effect of over 65% in size. Particulars: S16 Pmp22-F2sN Schwann cells (luciferase reporters placed in the Pmp22 gene) viability, CellTiter-Glo, 24 h; series mostly up to 57.5 µM; activity change, negative = cytotoxicity: at the top concentration. An outline of the steps:
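CellTiter-Glo counter-screen, qHTS, 1536-well. Cells: S16(c9) Pmp22-F2sN, 500-1,000/well in DMEM + 10% FBS. Cpd 23 nL pin transfer, 24 h, 37C/5% CO2. Read: luminescence, CCD imager.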
On the technique in general: In qHTS, concentration-response curves come from the screen itself.
On to `COc1ccc(C2C(C(=O)Nc3ccccc3)=C(C)Nc3nc(-c4ccccc4)nn32)c(OC)c1` (configuration not stated), for which the “activity change, negative = cytotoxicity” value is inactive: 0.222%.

As to `Cc1ccccc1NC(=O)Nc1csc2c1CCCC2`, the “activity change, negative = cytotoxicity” value is inactive: -18.8%.

Take `CCOc1ccc(CN2C(=O)c3ccccc3Sc3ccc(C(=O)NCc4ccc5c(c4)OCO5)cc32)cc1`: the “activity change, negative = cytotoxicity” value was inactive: 7.69%.

For the compound `COc1ccc(C)cc1NC(=O)C(NS(=O)(=O)c1cccs1)c1ccccc1` (configuration not stated), the “activity change, negative = cytotoxicity” value was inactive: 0.946%.

Turning to `Cc1cccc(C(=O)N2CCNC(=O)C2CC(=O)Nc2ccc(F)cc2)c1` (configuration not stated), the “activity change, negative = cytotoxicity” value is inactive: 1.04%.

Take `CCOc1ccc(CCNC(=O)C(CC)n2nc(C)c3c(C)n(-c4ccccc4)nc3c2=O)cc1` (configuration not stated): the “activity change, negative = cytotoxicity” value is inactive: -25.3%.

`Cc1cccc(N2CCN(C(=O)c3sc4nc5n(c(=O)c4c3C)CCC5)CC2C)c1` (configuration not stated): the “activity change, negative = cytotoxicity” value was inactive: 4.02%.

For the compound `COc1ccc(-c2c(C#N)c(SCC(=O)Nc3ccc(C)c(C)c3)nc(C)c2C(=O)Nc2ccc(Cl)cc2)cc1`, the “activity change, negative = cytotoxicity” value is inactive: -1.36%.

With `O=C(NC1CCCC1)c1ccc(CSc2nc3cccnc3n2Cc2cccc(F)c2)cc1`, the “activity change, negative = cytotoxicity” value is inactive: -10.9%.

In the case of `O=c1[nH]c(SCc2ccccc2)nc2c1CCCC2`, the “activity change, negative = cytotoxicity” value was inactive: -11.6%.

For `O=C(CSc1nnc(-c2ccccc2Br)n1-c1ccccc1)c1ccc(F)cc1`, the “activity change, negative = cytotoxicity” value is inactive: -1.1%.

For `Cc1nc2ccn(Cc3cccnc3)c(=O)c2cc1C(=O)NCc1ccccc1`, the “activity change, negative = cytotoxicity” value was inactive: 4.16%.

Regarding `Cc1oc(-c2ccccc2Cl)nc1CS(=O)CC(=O)N1CCN(c2cccc(C(F)(F)F)c2)CC1` (configuration not stated), the “activity change, negative = cytotoxicity” value is inactive: -28.4%.

As to `Cc1nc2sccn2c(=O)c1S(=O)(=O)Nc1ccc(N2CCN(C)CC2)cc1`, the “activity change, negative = cytotoxicity” value is inactive: 14.3%.

As to `CCC(=O)N1CCc2cc(CNS(=O)(=O)c3ccccc3F)ccc21`, the “activity change, negative = cytotoxicity” value is inactive: 5.13%.

Consider `Cc1cc(C)cc(NS(=O)(=O)c2ccc3[nH]cc(C(=O)N4CCCCC4)c(=O)c3c2)c1`, for which the “activity change, negative = cytotoxicity” value is inactive: -7.49%.

Regarding `Cc1ccc(-n2c(=O)c3oc4ccccc4c3n(Cc3ccccc3)c2=O)cc1C`, the “activity change, negative = cytotoxicity” value is inactive: 5.32%.

Consider `Cc1ccc(-c2noc(-c3nnn(CC(=O)Nc4ccc(C)cc4Cl)c3N)n2)cc1`, for which the “activity change, negative = cytotoxicity” value is inactive: 1.38%.

In the case of `Cc1cccc(OCC(=O)Nc2nnc(S(=O)(=O)N3CCCCCC3)s2)c1`, the “activity change, negative = cytotoxicity” value is inactive: 1.27%.

For `Cc1ccc(-n2nc(C(=O)NC(C)C)c(=O)n(C)c2=O)cc1`, the “activity change, negative = cytotoxicity” value was inactive: -0.649%.

Regarding `CCOc1ccccc1CNC(=O)c1ccc2c(c1)N(CC)CCS2`, the “activity change, negative = cytotoxicity” value is inactive: -3.7%.

With `COc1cccc(CNC(=O)C(Cc2ccccc2)NS(=O)(=O)c2ccc3c(c2)CCN3C(C)=O)c1` (configuration not stated), the “activity change, negative = cytotoxicity” value is inactive: -18.6%.

For the compound `CCOc1cc2c(cc1OCC)C(CC(=O)OC)N(C(=O)Nc1cc(C)cc(C)c1)CC2` (configuration not stated), the “activity change, negative = cytotoxicity” value is inactive: 6.72%.

On to `Cc1ccc(NC(=O)CCc2nc(-c3ccccc3F)no2)c(C)c1`, for which the “activity change, negative = cytotoxicity” value is inactive: 0.417%.

On to `O=C1CCCc2cc(S(=O)(=O)N3CCCC(C(=O)NCc4ccccc4Cl)C3)ccc2N1` (configuration not stated), for which the “activity change, negative = cytotoxicity” value was inactive: -2.82%.

On to `Cc1noc(-c2ccc(N3CCCCC3C)c([N+](=O)[O-])c2)n1` (configuration not stated), for which the “activity change, negative = cytotoxicity” value is inactive: -8.94%.

As for `COc1cc(Cl)c(C)cc1NC(=O)c1c(C)oc2nc(C)nc(N3CCCC3)c12`, the “activity change, negative = cytotoxicity” value is inactive: -2.33%.

Take `Cc1ccc(C)c(N2CCN(C(=O)CCc3c(C)nc4c(c3C)c(=O)n(C)c(=O)n4C)CC2)c1`: the “activity change, negative = cytotoxicity” value was inactive: 7.59%.

With `CCc1ccc(NC(=O)Cn2cnc3nc4c(cc3c2=O)CCCC4)cc1`, the “activity change, negative = cytotoxicity” value is inactive: -20.4%.

For the compound `Cc1ccc(C(=O)N2CC(=O)Nc3ccc(Br)cc3C2c2ccc(F)cc2)cc1C` (configuration not stated), the “activity change, negative = cytotoxicity” value is inactive: -24.9%.

Consider `COc1ccccc1CNC(=O)C1CCN(c2ncnc3c2nc2n3CCCCC2)CC1`, for which the “activity change, negative = cytotoxicity” value is inactive: -0.135%.

On to `CC(C)CCNC(=O)c1c[nH]c2ccc(S(=O)(=O)Nc3cccc(C(F)(F)F)c3)cc2c1=O`, for which the “activity change, negative = cytotoxicity” value was inactive: -1.92%.

With `COc1ccc(C(CNC(=O)c2oc3ccccc3c2C)N2CCCCC2)cc1` (configuration not stated), the “activity change, negative = cytotoxicity” value was inactive: 3.13%.

Turning to `CCc1ccc(-n2c3nc(=O)[nH]c(=O)c-3cc3c(C)nn(-c4ccccc4)c32)cc1`, the “activity change, negative = cytotoxicity” value is inactive: 2.58%.

With `CC(C)(C)OC(=O)N1CCC(c2nnc(SCc3ccccc3Cl)o2)CC1`, the “activity change, negative = cytotoxicity” value is inactive: 12.6%.

For `CS(=O)(=O)c1ncc(N(Cc2ccco2)Cc2cccs2)c(C(=O)Nc2ccccc2F)n1`, the “activity change, negative = cytotoxicity” value is inactive: 8.44%.

Regarding `COc1ccc(Cl)cc1NC(=O)C(C)n1c(=O)cc(C(F)(F)F)c2c(C)nn(C)c21` (configuration not stated), the “activity change, negative = cytotoxicity” value is inactive: -14.2%.

`CCc1c(C)sc2c1CCN(C(=O)Nc1ccccc1Cl)C2c1ccc(OC)cc1` (configuration not stated): the “activity change, negative = cytotoxicity” value was inactive: 7.2%.

With `Cc1ccc(-c2noc(-c3ccc(NC4CCCC4)c([N+](=O)[O-])c3)n2)cc1`, the “activity change, negative = cytotoxicity” value was inactive: -0.161%.

`COc1ccc(N2C(=O)NC(NS(=O)(=O)c3ccc(NC(C)=O)cc3)(C(F)(F)F)C2=O)cc1` (configuration not stated): the “activity change, negative = cytotoxicity” value is inactive: 5.41%.

For the compound `CCOc1ccc(CNC(=O)CCCn2nc(C)c3c(C)n(-c4ccc(C)cc4)nc3c2=O)cc1`, the “activity change, negative = cytotoxicity” value is inactive: -6.02%.

For the compound `Cc1ccc(Cn2ccn(Cc3ccc(C)cc3)c(=O)c2=O)cc1`, the “activity change, negative = cytotoxicity” value is inactive: -5.07%.

Regarding `CC1CCc2onc(C(=O)N3CCN(c4ccc(Cl)cc4)CC3)c2C1` (configuration not stated), the “activity change, negative = cytotoxicity” value is inactive: -9.69%.

Take `CCCCNC(=O)Cn1c(=O)cc(C)c2c(C)nn(-c3cccc(Cl)c3C)c21`: the “activity change, negative = cytotoxicity” value was inactive: -17%.

Consider `Cc1noc2ncnc(N3CCCC(C(=O)Nc4cc(F)ccc4F)C3)c12` (configuration not stated), for which the “activity change, negative = cytotoxicity” value is inactive: -10.7%.

On to `CCOC(=O)c1c(C)c(C(=O)NCc2ccc(Cl)cc2)c(C)n1C`, for which the “activity change, negative = cytotoxicity” value was inactive: 0.572%.

As for `COc1ccccc1NC(=O)C1=C(C)Nc2nc(-c3ccco3)nn2C1c1cccc(C)c1` (configuration not stated), the “activity change, negative = cytotoxicity” value is inactive: 10.8%.
